Measurements: PubChem BioAssay AID330 (DTP/NCI, 2004)
Inconclusive results and toxic doses are left out. Certain results were filed several times, with different values. Only these are listed. An entry can have further records. Values that stand side by side are repeats in other runs, samples, wells, individuals or studies. What stands in brackets tells the records apart. The letters are not those of the source and start again with each entry.

System: P388 leukemia ip, CD2F1 mice, survival T/C
Test: NCI In Vivo Anticancer Drug Screen. Data for tumor model P388 Leukemia (intraperitoneal) in CD2F1 (CDF1) mice
Details: endpoint: median survival time, higher = longer survival

`CCC1(O)CC(OC2CC(N(C)C)C(OC3CC(O)C(OC4CCC(=O)C(C)O4)C(C)O3)C(C)O2)c2c(cc3c(c2O)C(=O)c2c(O)ccc(O)c2C3=O)C1C(=O)OC` (centres undefined) was tested, and the T/C (dose: 1.56 mg/kg/injection, schedule: Q01DX009 (ip), vehicle: saline with Tween-80) was 97 % of control and 191 % of control.

For `Nc1n[n+](-c2ccccc2)no1`, the T/C (dose: 12.5 mg/kg/injection, schedule: Q01DX009 (ip), vehicle: water) was 118 % of control and 150 % of control.

For `COc1cccc2c1C(=O)c1c(O)c3c(c(O)c1C2=O)C[C@@](O)(/C(CO)=N/NC(=O)c1ccc(Cl)c(Cl)c1)C[C@@H]3OC1CC(N)C(O)C(C)O1` (some centres undefined), the T/C (dose: 12.5 mg/kg/injection, schedule: Q04DX003 (ip), vehicle: water) was 119 % of control and 159 % of control.

In the case of `C/C=C\C1OC1(C)c1cc(=O)c2c(C)cc3c(c2o1)C(=O)c1c(O)c(C2CC(C)(N(C)C)C(OC(C)=O)C(C)O2)cc(C2CC(N(C)C)C(O)C(C)O2)c1C3=O` (centres undefined), the T/C (dose: 2.0 mg/kg/injection, schedule: Q01DX009 (ip), vehicle: saline + alcohol) is reported as 98 % of control and 150 % of control.

`CC1CC(C)CC(C)C(O)/C(C#N)=C/C=C/CC(C2CCCC2C(=O)O)OC(=O)CC(O)C(C)C1` (centres undefined) was tested, and the T/C (dose: 2.0 mg/kg/injection, schedule: Q01DX009 (ip), vehicle: Klucel (hydroxypropylcellulose) (HPC)) was 86 % of control, 169 % of control [sample A] and 86 % of control [sample B] and 86 % of control, 169 % of control [sample C].

With `COc1cccc2c1C(=O)c1c(O)c3c(c(O)c1C2=O)C[C@@](O)(C(O)CO)C[C@@H]3OC1CC(NC(=O)C(F)(F)F)C(O)C(C)O1` (some centres undefined) the T/C (dose: 3.13 mg/kg/injection, schedule: Q01DX009 (ip), vehicle: other) was 123 % of control and 158 % of control.

For `CC[C@](O)(C(=O)O)c1cc2n(c(=O)c1CO)Cc1cc3ccccc3nc1-2`, the T/C (dose: 16.2 mg/kg/injection, schedule: Q04DX002 (ip), vehicle: saline) was 114 % of control and 175 % of control, the T/C (dose: 27.0 mg/kg/injection, schedule: Q04DX002 (ip), vehicle: saline) was 111 % of control and 176 % of control and the T/C (dose: 75.0 mg/kg/injection, schedule: Q04DX002 (ip), vehicle: saline) was 92 % of control and 160 % of control.

In the case of `CCN1/C(=C/C=C/C=C\C=C\c2sc3ccc4ccccc4c3[n+]2CC)Sc2ccc3ccccc3c21`, the T/C (dose: 25.0 mg/kg/injection, schedule: Q04DX002 (ip), vehicle: saline with Tween-80) is reported as 87 % of control and 157 % of control.

`Nc1nncs1` was tested, and the T/C (dose: 60.0 mg/kg/injection, schedule: Q01DX009 (ip), vehicle: water) was 102 % of control and 200 % of control.

With `C[CH2][Sn]([CH2]C)([N]=C=S)[N]=C=S` the T/C (dose: 12.5 mg/kg/injection, schedule: Q01DX009 (ip), vehicle: saline) was 93 % of control, 102 % of control, 155 % of control and the T/C (dose: 25.0 mg/kg/injection, schedule: Q01DX009 (ip), vehicle: saline) was 101 % of control, 102 % of control, 156 % of control.

In the case of `COc1cccc2c1C(=O)c1c(O)c3c(c(O)c1C2=O)C[C@@](O)(C(O)CO)C[C@@H]3OC1CC(NCc2ccccc2)C(O)C(C)O1` (some centres undefined), the T/C (dose: 6.25 mg/kg/injection, schedule: Q01DX009 (ip), vehicle: water) is reported as 106 % of control and 192 % of control.

In the case of `N=C1C=CC2C(=Nc3ccccc3[N+]2=O)N1CCO` (centres undefined), the T/C (dose: 120.0 mg/kg/injection, schedule: Q01DX005 (ip), vehicle: saline with Tween-80) is reported as 100 % of control, 105 % of control, 163 % of control.

In the case of `COc1cccc2c1C(=O)c1c(O)c3c(c(O)c1C2=O)C[C@@](O)(C(C)=O)C[C@@H]3OC1CC(N)C(O)C(C)O1` (some centres undefined), the T/C (dose: 0.97 mg/kg/injection, schedule: Q04DX003 (ip), vehicle: saline) is reported as 100 % of control and 153 % of control, the T/C (dose: 1.0 mg/kg/injection, schedule: Q04DX003 (ip), vehicle: saline) is reported as 122 % of control and 156 % of control and the T/C (dose: 1.62 mg/kg/injection, schedule: Q04DX003 (ip), vehicle: saline) is reported as 110 % of control and 166 % of control.

`CNC(=O)OCc1c(COC(=O)NC)c2n(c1C)CCc1ccccc1-2` was tested, and the T/C (dose: 25.0 mg/kg/injection, schedule: Q01DX009 (ip), vehicle: distilled water + Tween-80) was 122 % of control and 169 % of control.

In the case of `CCC12C=CCN3CCC4(c5cc(C6c7[nH]c8ccccc8c7CCN7CCCCC67)c(OC)cc5N(C)C4C(O)(C(=O)OC)C1OC(C)=O)C32` (centres undefined), the T/C (dose: 1.0 mg/kg/injection, schedule: Q01DX009 (ip), vehicle: Klucel (hydroxypropylcellulose) (HPC)) is reported as 111 % of control and 161 % of control.

In the case of `COc1cc2c(c(OC)c1OC)-c1ccc(SCc3ccccc3)c(=O)cc1[C@@H](NC(C)=O)CC2`, the T/C (dose: 6.25 mg/kg/injection, schedule: Q01DX009 (ip), vehicle: Klucel (hydroxypropylcellulose) (HPC)) is reported as 105 % of control and 154 % of control.

With `Cc1c2ccncc2c(CN(CCCl)CCCl)c2c3ccccc3n(C)c12` the T/C (dose: 10.0 mg/kg/injection, schedule: Q01DX005 (ip), vehicle: saline) was 123 % of control and 153 % of control.

`COc1cc2c(c3c1C(=O)c1c(cc4c(c1O)C(OC)CC(C)(O)C4)C3=O)OC1OC2(C)C(O)C(N(C)C)C1O` (centres undefined) was tested, and the T/C (dose: 10.0 mg/kg/injection, schedule: Q01DX009 (ip), vehicle: other) was 116 % of control and 152 % of control.

`Nc1cccc(S(=O)(=O)Nc2c(N)[nH]c(=S)[nH]c2=O)c1` was tested, and the T/C (dose: 240.0 mg/kg/injection, schedule: Q01DX005 (ip), vehicle: Klucel (hydroxypropylcellulose) (HPC)) was 98 % of control, 100 % of control, 166 % of control.
